# Results taken from PubChem BioAssay AID1345083 (National Center for Advancing Translational Sciences (NCATS), 2018).
# About 6,200 (6.6%) of roughly 94,000 compounds were called active. Inconclusive means that the source gave no clear call. Such entries were picked first, then a sample of the others. The call rests on the fitted dose curve; in most records, active means well fitted inhibition curve with a large enough effect; inconclusive means small, poorly fitted or top-dose-only effect; inactive means flat fitted curve, though single readings scatter. A potency beside an inconclusive call is a rough fit, not a confirmed value.
# Assay: Cytotoxic Profiling in HEK 293 Cell Line of Diverse Libraries Using Quantitative High-Throughput Screening; further: nearly all actives have a fitted effect of over 60% in size
# Conditions: HEK 293 viability, ATP luminescence (CellTiter-Glo), 48-72 h; series mostly up to 115 µM
# Outline: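 Cytotoxicity was scored by loss of ATP-coupled luminescence (CellTiter-Glo) in HEK 293 cells. Compound treatment ran 48 or 72 hr at 37 degree Celsius, 5% CO2, 95% humidity.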
# Potency means the concentration at half of the fitted maximal effect; tags describe the fitted curve by direction and shape.
row,SMILES,Potency
1,COC(=O)[C@H]1CN(C(=O)NC(C)C)CCN1C(=O)c1cccnc1,inactive
2,O=C(NC1CCCN(c2cc(N3CCCC3)ncn2)C1)c1ccccc1 (configuration not stated),"inconclusive: 44.7 µM [inhibitor, partial curve, poor fit]"
3,Cc1noc(C)c1S(=O)(=O)NCC1(COc2ccc(C(F)(F)F)cn2)C[C@@H](O)[C@@H](O)C1 (some centres not stated),inactive
4,COc1cccc(CNC(=O)C2CN(C(C)C)C(=O)N2)c1 (configuration not stated),inactive
5,O=C(NC1CC(c2cc(N3CCC(O)C3)ncn2)C1)c1ccoc1 (configuration not stated),inactive
6,O=C(c1cccnc1)N1CC(Oc2ccccc2-c2nc(-c3cnccn3)no2)C1,"inconclusive: 89.1 µM [inhibitor, single point]"
7,O=C(N1CCC(N2CC(OCC3CC3)C23CCOCC3)CC1)C1(c2ccccc2)CC1 (configuration not stated),inactive
8,Cc1cc(C(=O)N2CCC3(CC2)CC(c2ccccc2)C(=O)N(C)C3)n[nH]1 (configuration not stated),inactive
9,CC(=O)NC1(C)CCN(Cc2cccc(-c3ccc4c(c3)OCCN4C)c2)C1 (configuration not stated),"inconclusive: 112 µM [inhibitor, partial curve, poor fit]"
10,CN1CC(=O)N(C2CCCC2)Cc2c(NCc3ccc4c(c3)OCO4)ncnc21,"inconclusive: 89.1 µM [inhibitor, single point]"
11,COCC(=O)N1CCC(N2C(=O)c3c(c(C)nn3-c3ccccc3)C2C2CC2)C1 (configuration not stated),inactive
12,COc1ccc(CN2CCC(N3Cc4cccn4C3=O)CC2)cc1,"inconclusive: 112 µM [inhibitor, single point]"
13,COC(=O)c1ccccc1S(=O)(=O)N1CCC(c2cc(-c3cccc(C)c3)n[nH]2)CC1,active: 44.7 µM
14,O=C(c1cccnc1)N1CCN(c2cc(-c3ccccc3)[nH]n2)CC1,"inconclusive: 44.7 µM [inhibitor, partial curve, poor fit]"
15,O=C(Cc1ccc(F)cc1)N1CCc2nc(C3CC3)nc(-c3ccc(Cl)cc3)c2C1,"inconclusive: 56.2 µM [inhibitor, partial curve, poor fit]"
16,Cc1noc(-c2ccc(OC3CN(C(=O)NC4CCCCC4)C3)cc2)n1,active: 39.8 µM
17,O=C(NC1CCS(=O)(=O)C1)c1cc2c(s1)CN(C1CCCC1)C2 (configuration not stated),"inconclusive: 89.1 µM [inhibitor, single point]"
18,O=C(c1ccc(Cl)cc1)N1CCC2(CC1)C(=O)NCN2C(=O)CCCN1CCCC1,inactive
19,O=C(NCc1ccc2c(c1)OCO2)C1CN(C2CCCCC2)C(=O)N1 (configuration not stated),inactive
20,CCN1CCCCC12Cc1ccccc1CN(S(C)(=O)=O)C2 (configuration not stated),inactive
21,c1ccc(Oc2cc3c(cn2)NCCN(Cc2ccsc2)C3)cc1,"inconclusive: 100 µM [inhibitor, partial curve]"
22,O=C(NCc1cccc(C(F)(F)F)c1)c1ccc2nc(-c3ccccn3)oc2c1,"inconclusive: 50.1 µM [inhibitor, partial curve, poor fit]"
23,COc1ccc(C(=O)N(C)Cc2ccc(-c3ccccc3)cc2)cc1,"inconclusive: 79.4 µM [inhibitor, partial curve, poor fit]"

row,SMILES,Potency
1,Cc1nn(C(=O)CCCC(=O)N2CCC(Cc3nc(C4CCOCC4)no3)CC2)c2ccccc12,"inconclusive: 44.7 µM [inhibitor, partial curve, poor fit]"
2,Cn1ncc2c(C(=O)NCc3ccccc3Cl)cc(-c3ccccc3C(F)(F)F)nc21,"inconclusive: 35.5 µM [inhibitor, full curve, poor fit]"
3,COCCOCC(=O)N1CCC2(CC1)NCCc1c2[nH]c2ccc(OC)cc12,inactive
4,O=C(NC1CC1)C1CCCN1C(=O)c1cccc(-c2ccccn2)c1 (configuration not stated),inactive
5,CN1c2cc(C(=O)N3CCN(c4ccccc4F)CC3)ccc2C(=O)N2CCCCCC21 (configuration not stated),"inconclusive: 56.2 µM [inhibitor, partial curve, poor fit]"
6,O=S(=O)(c1ccccc1)N1CC(Oc2ccc(-c3noc(C4CC4)n3)cc2)C1,"inconclusive: 10 µM [inhibitor, full curve]"
7,Cn1nccc1C(=O)N1CCC(c2noc(C3CC3)n2)C1 (configuration not stated),inactive
8,Oc1ccccc1CN1CCNc2cnc(OCc3cccnc3)cc2C1,active: 100 µM
9,CCC1Oc2ccc(NC(=O)Cc3ccc(F)cc3)cc2CN(Cc2ccccc2F)C1=O (configuration not stated),active: 44.7 µM
10,COCCNc1ncc(-c2cccc(O)c2)c2c1OCC2,inactive
11,COCCN1CCCC1c1nc(C2CN(S(=O)(=O)c3cccc(OC)c3)C2)no1 (configuration not stated),inactive
12,O=C(NCc1cccc(Cl)c1)c1cc(-c2cc(Cl)cc(Cl)c2)c2nncn2n1,inactive
13,COc1ccc(-c2cc3c(ccn3C(C)C)c(C(=O)NCc3c(C)cc(C)[nH]c3=O)n2)cn1,"inconclusive: 50.1 µM [inhibitor, partial curve, poor fit]"
14,CCCCCNC(=O)c1cc(-c2cccc(F)c2)nc2c1cnn2C,"inconclusive: 56.2 µM [inhibitor, full curve]"
15,COc1cccc(-c2cc3c(=O)n(CCNC(=O)Cc4c[nH]c5ccccc45)ccn3n2)c1,"inconclusive: 39.8 µM [inhibitor, single point]"
16,Cc1cc(C)n(CCC(=O)N2CCc3c(c(C(=O)N4CCOCC4)nn3CCc3ccccc3)C2)n1,"inconclusive: 89.1 µM [inhibitor, partial curve, poor fit]"
17,c1ccc(-c2noc(-c3cncnc3N3CCCCCC3)n2)cc1,"inconclusive: 50.1 µM [inhibitor, partial curve, poor fit]"
18,COCCNC(=O)[C@@H]1CCC[C@@H](NC(=O)NC2(c3ccccc3)CCOCC2)CN(C)C(=O)C1,"inconclusive: 35.5 µM [inhibitor, single point]"
19,CN(CC1CCOC1)C(=O)Nc1cccc(Cl)c1F (configuration not stated),inactive
20,CCC1Oc2ccc(NC(=O)COc3ccccc3)cc2CN(Cc2ccc(F)cc2)C1=O (configuration not stated),"inconclusive: 56.2 µM [inhibitor, partial curve, poor fit]"
21,COc1ccccc1Cn1c(=O)c(C(=O)NC(C)c2ccc(F)cc2)nc2cccnc21 (configuration not stated),"inconclusive: 50.1 µM [inhibitor, partial curve, poor fit]"
22,CC(Nc1ccc(-c2nc(CCCc3ccccc3)no2)cn1)c1cnn(C)c1 (configuration not stated),"inconclusive: 35.5 µM [inhibitor, partial curve, poor fit]"
23,CCc1cc(=O)n(CC(=O)Nc2ccc(C(C)=O)cc2)c(N2CCOCC2)n1,"inconclusive: 70.8 µM [inhibitor, partial curve, poor fit]"

row,SMILES,Potency
1,Cc1cnc2c(Cl)c(C(=O)N[C@@H]3COCC[C@@H]3OCC3CC3)nn2c1,inactive
2,O=C(C1CCCN1C(=O)NC1CCCC1)N1CCCC(c2nc3ncccc3[nH]2)C1 (configuration not stated),inactive
3,O=C(c1ccc2c(c1)OCO2)N1CCN(c2ccnc3ccnn23)CC1,"inconclusive: 56.2 µM [inhibitor, partial curve, poor fit]"
4,CC(C)C(=O)N1CCCC2(COc3ccccc3[S+](=O)([O-])N2)C1 (configuration not stated),inactive
5,N#Cc1cccc(C(=O)N2CC(COc3ccccc3)C3(C2)CN(c2ccccc2)C3)c1 (configuration not stated),"inconclusive: 39.8 µM [inhibitor, full curve]"
6,Cc1ccc(F)c(OCC(=O)c2ccc3c(c2)N(C(C)C(=O)NCc2ccco2)C(=O)CO3)c1 (configuration not stated),"inconclusive: 44.7 µM [inhibitor, partial curve, poor fit]"
7,O=C1COc2ccc(OCc3ccccc3)nc2CN1CCOc1ccccc1,active: 89.1 µM
8,COc1ccccc1-c1cnc(Nc2ccc3c(c2)OCCO3)c2c1CCO2,"inconclusive: 44.7 µM [inhibitor, full curve]"
9,COc1cccc(-c2cccc(C(=O)N3CCCC3C(=O)N3CCC(c4ccccc4)CC3)c2)c1 (configuration not stated),"inconclusive: 35.5 µM [inhibitor, partial curve, poor fit]"
10,CCCCCC(=O)N1CC(=O)N(Cc2cccc(F)c2)CC(O)C1 (configuration not stated),inactive
11,COc1ccccc1CCn1cnc(-c2ccccc2)c1-c1cn(C)nc1C,active: 79.4 µM
12,COc1cc(NC(=O)c2ccc3c(c2)N(C)C2CCCCCN2C3=O)cc(OC)c1OC (configuration not stated),active: 39.8 µM
13,COc1ccccc1N1CCCc2ncc(C(=O)NCCc3c[nH]c4ccccc34)cc21,"inconclusive: 56.2 µM [inhibitor, full curve]"
14,COc1ccc(F)cc1-c1cccc(C(=O)NCCNC(C)=O)c1,inactive
15,CCc1nc2c(c(-c3ccc(Cl)cc3)n1)CCN(C(=O)c1ccc(C(F)(F)F)cc1)CC2,"inconclusive: 50.1 µM [inhibitor, partial curve, poor fit]"
16,COc1ccc(C(=O)N2CCCOCCNC(=O)[C@@H]3CCCC[C@@H]32)c(OC)n1,"inconclusive: 39.8 µM [inhibitor, partial curve, poor fit]"
17,Cn1ccc2c(C(=O)NCc3cccnc3)nc(-c3ccc([S+](C)(=O)[O-])cc3)cc21,"inconclusive: 79.4 µM [inhibitor, partial curve]"
18,CCc1cccc2c(C(CC(=O)N3CCCCC3)c3cccc(OC)c3)c[nH]c12 (configuration not stated),"inconclusive: 89.1 µM [inhibitor, single point]"
19,COCCN1CC(C)(C)CN(C(=O)c2ccc(OC)cc2)CC1=O,"inconclusive: 89.1 µM [inhibitor, single point]"
20,O=C(NCCNC(=O)c1ccc(Cl)nc1)c1ccc(-c2cccc(C(F)(F)F)c2)cc1,"inconclusive: 89.1 µM [inhibitor, single point]"
21,NC(=O)[C@@H](Cc1c[nH]c2ccccc12)NC(=O)[C@@]1(O)C[C@@H](O)[C@H](O)[C@@H](NC(=O)c2ccc(F)c(Cl)c2)C1,inactive
